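Interpolation was linear, between the two tested concentrations surrounding the appropriate level; five concentrations were tested over 48 hours in 96-well plates. GI50 marks 50% less growth.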 The source made the active and inactive calls. No stated cut-off is given here; in the data, active = GI50 up to about 1.1 µM and inactive = higher. Some results are limits rather than exact numbers.

The experiment relates to NCI-H322M. Description: NCI-60 cell line screen, 48 h.
In the case of `COc1c(C(CC(C)C)OC(C)=O)ccc2c1C(=O)OCc1cc(C)cc(O)c1O2` (stereo not drawn), the GI50 is inactive: 16.9 µM.

Turning to `NCC1CCCCC1.O=C(O)NCC1CCCCC1`, the GI50 is inactive: 33.2 µM.

Turning to `OCCCNc1[nH]cnc2nncc1-2`, the GI50 is inactive: > 100 µM.

For `O=C(O)CCCc1ccc2ccccc2c1`, the GI50 was inactive: > 100 µM.

With `O=C(OCc1ccccc1CN1CCOCC1)c1ccc(Br)cc1`, the GI50 was inactive: > 100 µM.

Regarding `CCOC(=O)C(=O)Nc1c(C)cccc1C(C)(C)C`, the GI50 is inactive: > 100 µM.

As to `C=C(C)C1CC2=C(C(=O)OC)C=C(O2)C(C(=C)C)[C@@H]2OC(=O)/C(=C\C1O)[C@H]2N(C)C` (stereo partly drawn), the GI50 was inactive: 28.9 µM.

For the compound `O=C(Nc1cccc(Cc2cccc(NC(=O)c3ccccc3)c2)c1)c1ccccc1`, the GI50 was inactive: 81.8 µM.

Regarding `O=C(Cc1ccc(Cl)c(Cl)c1)NCCCN1CCN(CCCN2CCCCC2)CC1`, the GI50 was inactive: 16.6 µM.

For the compound `S=c1cc(S)c2c(=S)sc3nc4ccccn4c(=S)c3c2s1`, the GI50 was inactive: > 100 µM.

As to `COc1ccc(N/N=C(\CCN(C)C)c2ccccc2)cc1`, the GI50 is inactive: 11.4 µM.

As to `CS(=O)(=O)c1cc(=O)c2ccccc2s1`, the GI50 was inactive: 16.9 µM.

As to `O=C(Cc1ccc(F)cc1)NC1=C(Cl)C(=O)c2ccccc2C1=O`, the GI50 was inactive: 7.82 µM.

In the case of `COc1nc2ccc(Cl)c(C(O)c3ccccc3)c2nc1OC` (stereo not drawn), the GI50 was inactive: 50.7 µM.

On to `COc1ccc(N(C)S(=O)(=O)c2ccccc2)cc1`, for which the GI50 is inactive: > 100 µM.

For the compound `OCC(S)CS.[Bi]` (stereo not drawn), the GI50 is inactive: 16.3 µM.

`C[N+]1=C(c2cccnc2/C=N/O)OCC1(C)C`: the GI50 is inactive: > 100 µM.

In the case of `c1csc(-c2cscc2-c2cccs2)c1`, the GI50 was inactive: 54.3 µM.

Take `CN1CCC23c4c5ccc(Oc6nnnn6-c6ccccc6)c4OC2c2[nH]c4ccccc4c2CC3(O)C1C5` (stereo not drawn): the GI50 was inactive: 7.05 µM.

`CCC12CCCN(Cc3ccccc3)C1c1c(n(C)c3ccccc13)C(C(=O)OC)C2` (stereo not drawn): the GI50 was inactive: 164 µM.

Consider `Cc1c(C(=O)NCCO)[n+]([O-])c2cc(Cl)ccc2[n+]1[O-]`, for which the GI50 is inactive: > 100 µM.

For the compound `Cc1ccc([S+]([O-])c2ccccc2[N+](=O)[O-])cc1` (stereo not drawn), the GI50 is inactive: 51.6 µM.

As for `C=CCC(NCc1ccccc1)[C@H](OCc1ccccc1)[C@@H]1COC(C)(C)O1` (stereo partly drawn), the GI50 was inactive: 66.1 µM.

`CSc1snc2sc3c(Cl)nnnc3c12`: the GI50 was inactive: 16.3 µM.

Consider `Cc1n(CC(=O)c2ccc([N+](=O)[O-])cc2)c2c([n+]1CC(C)C)C(=O)c1ccccc1C2=O`, for which the GI50 was active: < 0.01 µM.

On to `O=C1c2cccnc2C(=O)c2c1nc1ccccc1c2-c1cncc(-c2c3c(nc4ccccc24)C(=O)c2cccnc2C3=O)c1`, for which the GI50 is active: 0.184 µM.

For `Cc1cc(N(CCC#N)CCC#N)ccc1C(/N=N/c1ccccc1)=N\NC(=O)c1cc(Cl)ccc1O`, the GI50 is inactive: 30.5 µM.

As for `Cn1ccnc1Sc1ccc(/C=N/c2ccc3nc(SCC(=O)NC4CCCCC4)sc3c2)cc1[N+](=O)[O-]`, the GI50 was inactive: 15.6 µM.

For the compound `S=C(Nc1ccc2c(c1)oc1ccccc12)c1cccnc1`, the GI50 was inactive: > 100 µM.

`Fc1ccc(NCn2nc(COc3ccccc3Cl)n(/N=C/c3ccc(-c4ccc(Cl)cc4Cl)o3)c2=S)cc1Cl`: the GI50 is inactive: > 100 µM.

`Cc1[nH]c2ncn(N)c(=N)c2c1Cc1ccccc1`: the GI50 is inactive: > 100 µM.

For the compound `O=C1N=C2SC(=S)N=C(S)N2NC12c1ccccc1-c1ccccc12`, the GI50 was inactive: > 10 µM.

Turning to `O=C(/C=C/c1ccccc1)/C=N/N1C(=S)N(c2ccccc2)C(=N\c2ccccc2)/C1=N/c1ccccc1`, the GI50 was inactive: > 100 µM.

With `COc1ccc(N/N=C2\C3=C(CCC(C)(C)O3)C(=O)c3ccccc32)cc1`, the GI50 was inactive: 26.5 µM.

With `O=C1COc2cc(NC(=S)Nc3ccccc3)ccc2N1`, the GI50 was inactive: > 100 µM.

Consider `Clc1cc(OCC23CC4CC(CC(C4)C2)C3)nc(OCC23CC4CC(CC(C4)C2)C3)n1`, for which the GI50 is inactive: > 100 µM.

For the compound `O=C(c1ccccc1)c1nnc(C(=O)c2ccccc2)nn1`, the GI50 was inactive: > 344 µM.

Consider `CC[C@@H]1CC[C@@H]2[C@H](CC[C@]3(C)[C@@H](O)CC[C@@H]23)[C@H]1C(=O)O`, for which the GI50 was inactive: > 100 µM.

On to `N[C@@H](CCC(=O)NCP(=O)(O)O)C(=O)O`, for which the GI50 was inactive: > 100 µM.

For `CCCCCCCCCCCCCCCC(=O)OCC(COP(=O)(O)OCCNC(=O)CCSSc1ccccn1)OC(=O)CCCCCCCCCCCCCCC` (stereo not drawn), the GI50 is inactive: > 100 µM.

For `CC(=O)Nc1ccc(-c2nnc(SCC(=O)Nc3ccc([N+](=O)[O-])cc3)o2)cc1`, the GI50 was inactive: 22.1 µM.

For the compound `O=C(COC(=O)c1cccc2c(=O)c3ccccc3[nH]c12)Nc1ccccc1`, the GI50 is inactive: > 100 µM.

For the compound `O=[N+]([O-])C(C(Cl)=C(Cl)Cl)=C(N(Cc1ccccc1)Cc1ccccc1)N(Cc1ccccc1)Cc1ccccc1`, the GI50 was inactive: > 100 µM.

Consider `COc1ccc2c(c1)[nH]c1c3ccc(OC)cc3oc(=O)c21`, for which the GI50 was inactive: > 100 µM.

`O=C1Nc2ccc(Cl)cc2C(=O)N2CCC[C@@H]12`: the GI50 was inactive: > 100 µM.

On to `Cc1nc(N)sc1C(=O)Nc1nc[nH]n1`, for which the GI50 is inactive: > 100 µM.

Turning to `C#C[C@]1(O)CCCC2=CC(=O)CC[C@@]21C`, the GI50 is inactive: > 100 µM.

Take `CN1CCCC(C(=O)OCC(=O)C2(O)CCC3C4CCC5=CC(=O)CCC5(C)C4C(O)CC32C)C1` (stereo not drawn): the GI50 is inactive: 19.5 µM.

Regarding `N#CC(C(=O)O)C(c1c(Cl)cccc1Cl)C(C#N)C(=O)O` (stereo not drawn), the GI50 is inactive: > 100 µM.

In the case of `CCN(C(=O)N[C@@H](CC(C)C)C(=O)NCC(=O)OC)c1ccccc1`, the GI50 was inactive: > 100 µM.

For `CCOc1cc[n+]([C-](C#N)C#N)cc1`, the GI50 was inactive: > 100 µM.

Regarding `CCCCCCCCCCCCCCCCCc1nc(Cl)nc(Cl)c1Cl`, the GI50 is inactive: > 100 µM.

Turning to `O=C(Cn1c(=O)oc2ccc(C(=O)c3cccc(Cl)c3)cc21)c1ccccc1`, the GI50 is inactive: > 100 µM.

Turning to `CCOC(=O)/C(=C\NC(=S)Nc1ccc(Cl)c(Cl)c1)C(=O)c1ccccc1`, the GI50 is inactive: 69.3 µM.

Consider `Nc1ccc(C(=O)/C=C/c2ccccc2O)cc1`, for which the GI50 was inactive: > 100 µM.

On to `NNC(=O)c1ccccc1NC(=O)/C(=C/c1ccccc1O)NC(=O)c1ccccc1`, for which the GI50 is inactive: > 100 µM.

Take `Cc1cn(CCCC2=NCCCN2)c(=O)[nH]c1=O`: the GI50 was inactive: > 100 µM.

In the case of `CN/N=C(/Cc1occc(=O)c1O)C(=O)Nc1ccccc1C`, the GI50 was inactive: > 100 µM.

Regarding `COC(=O)/C=C/c1ccc2c(c1)[C@H](C(=O)OC)[C@@H](c1ccc(O)cc1)O2`, the GI50 is inactive: 54.6 µM.

Turning to `CC(=O)O[C@@H]1O[Si](C(C)(C)C)(C(C)(C)C)[C@H](C)[C@H]1C`, the GI50 was inactive: > 10 µM.

For `Cc1ccc2c(c1)Sc1ccc(/N=N/N(C)C)cc1N2C`, the GI50 is inactive: 58.2 µM.

As for `CCCC(=O)CC(C)C(=O)C(=O)NC12CC3CC(CC(C3)C1)C2` (stereo not drawn), the GI50 is inactive: > 100 µM.

In the case of `CN(C)CC1CCC(=C2CCCC2)C1=O` (stereo not drawn), the GI50 was inactive: 17.8 µM.

In the case of `CCCCc1ccc(Nc2nc(Cl)c3ncn(COCCOC(C)=O)c3n2)cc1`, the GI50 is inactive: 17.2 µM.

As to `COc1cc2c3c(n(Cc4ccccc4)c(=O)c2cc1OC)-c1ccccc1C3=O`, the GI50 was inactive: > 100 µM.

As for `CC(C)N(C(=O)c1ccc(NCc2cc(O)ccc2O)cc1)C(C)C`, the GI50 was inactive: 22.8 µM.

Consider `O=C1c2ccccc2-c2nc(-c3cccs3)cc3c2c1nc1ccccc13`, for which the GI50 is inactive: 22.8 µM.

For `CSc1nc(NC2OC(COC(C)=O)C(OC(C)=O)C(OC(C)=O)C2OC(C)=O)c(/N=C\C=N/c2c(NC3OC(COC(C)=O)C(OC(C)=O)C(OC(C)=O)C3OC(C)=O)nc(SC)n(C)c2=O)c(=O)n1C` (stereo not drawn), the GI50 was inactive: > 100 µM.

Take `COC1=C(OC)C(=O)c2cc(C)c(=O)c(C)cc2C1=O`: the GI50 was inactive: 18.2 µM.

Regarding `CC(=O)c1ccc(N2C(=O)C3c4[nH]c5ccccc5c4C4CCC(C(C)(C)C)CC4C3C2=O)cc1` (stereo not drawn), the GI50 was inactive: 24.6 µM.

For the compound `CN1c2ccccc2C(=O)Nc2cnc(Cl)nc21`, the GI50 is inactive: > 100 µM.

Consider `O=c1[nH]c(=O)n2n1C1C=CC2CC1`, for which the GI50 was inactive: > 100 µM.

Turning to `FC(F)(F)c1ccc(/N=C/C=C(/Nc2ccc(C(F)(F)F)cc2)c2ccc(Cl)cc2)cc1`, the GI50 was inactive: 14 µM.

As for `Cc1ccc2c(c1)C(=O)C1(Cc3ccccc3C1=O)C2` (stereo not drawn), the GI50 was inactive: > 100 µM.

For `O=S(=O)(O)SC/C=C\CSS(=O)(=O)O`, the GI50 is inactive: > 100 µM.

`O=C(OC12CC3CC(CC(C3)C1)C2)c1ccc(NCc2cc(O)ccc2O)cc1`: the GI50 is inactive: 7.19 µM.

With `O=C(NCCCCNCCCNC(=O)OCc1ccccc1)OCc1ccccc1`, the GI50 was inactive: 60.5 µM.

`CC1(C)OC(C[C@]2(C#N)C[C@H](CCl)OC(C)(C)O2)C[C@@H](C[C@]2(C#N)C[C@H](CCl)OC(C)(C)O2)O1` (stereo partly drawn): the GI50 was inactive: > 100 µM.

On to `C/C=C1/CN2CCC34C5=CC(=O)C(c6cc7c(cc6OC)N(C)C6=C(C(=O)OC)CC8(CC)CCCN9CCC67C98)=CC5=NC23CCC1C4C(=O)OC` (stereo not drawn), for which the GI50 is inactive: 17.3 µM.

Turning to `C=C1C(=O)C23C(CC(OC(C)=O)C1[C@@H]2OC(C)=O)C1(C)C(OC(C)=O)CCC(C)(C)C1C[C@@H]3OC(C)=O` (stereo partly drawn), the GI50 was inactive: 1.73 µM.

With `NS(=O)(=O)c1ccc(/N=N/c2cccnc2O)cc1`, the GI50 is inactive: > 100 µM.

On to `Cc1cc(C)c2c(O)cc(-c3cccc(Cl)c3)nc2n1`, for which the GI50 is active: 0.366 µM.

In the case of `COc1ccc(-c2cc(=O)c3c(OC)c(OC)c(OC)c(OC)c3o2)c(OC)c1`, the GI50 was inactive: 30.5 µM.

These data come from ChEMBL document CHEMBL1201862, “PubChem BioAssay data set” (2004).
